# Test results from patent EP0463514B1, “3.3'-Dithiobis (propionic acids) and esters thereof” (priority 1990, dated 1992).
# At least one read-out could not be matched to a standard name with certainty. Marks after values point to notes of the source that are not given here.
# Test system: delayed type hypersensitivity (DTH) reaction
# Assay: Delayed type hypersensitivity (DTH) reaction in the mouse, OXA sensitization and ear challenge, ear thickness
# Type: in vivo, Balb/c mice
# Conditions: increase in ear thickness 24 hours after OXA challenge, oral feeding from sensitization to Day 6, 100 = doubled ear thickness
# Text: The property of the compounds of the invention to stimulate immune responses are illustrated by their efficacy in a model in the mouse of the delayed type hypersensitivity (DTH) reaction.
# Both male and female Balb/c mice obtained from Bomhotsgaard (Denmark) and Charlie Rivers (England), were used at the weight of 18-20 gram. 4-ethoxymethylene-2-phenyloxazolone (OXA) was purchased from BDH (England) and served as an antigen in this test.
# The mice were sensitized, Day 0, by epicutaneous application of 150 ul absolute ethanol-acetone (3:1) solution containing 3% OXA on the shaved thorax and abdomen. Treatment with the compound under examination, DiNAC (as a positive control) or vehicle (phosphate buffer, pH 7.0) was initiated by oral feeding immediately after sensitization and contiuned once to Day 6. […] (Day 6) after the sensitization both ears of all mice were challenged on both sides by topical application of 20 ul 1% OXA dissolved in olive oil. Ear thickness was measured prior to and 24 or 48 hours after challenge using an Oditest spring calliper. Challenges and measurements were performed under light pentobarbital anaesthesia. The intensity of the DTH reactions was expressed according to the formula: Tt24/48-Tt0 um units, where t0 and t24/48 represent the ear thickness before and 24 or 48 hours after challenge, respectively, in individual test (T). The results were expressed as the mean+/-S.E.M. The level of significance between means of the groups was obtained by Student's two-tailed t-test. […] A figure of 100 thus indicates a doubled ear thickness.
Structure (SMILES),"% Increase, 24h (0.03 »mol/kg)","% Increase, 24h (3.0 »mol/kg)"
"CCCCCC(=O)N[C@@H](CSSC[C@H](NC(=O)CCCCC)C(=O)OC)C(=O)OC [Example 9, (R,R)-N,N'-dihexanoyl-3,3'-dithiobis(2-aminopropionic acid)dimethylester]",73** %,86** %
"CCCCCCCC(=O)N[C@@H](CSSC[C@H](NC(=O)CCCCCCC)C(=O)OC)C(=O)OC [Example 10, (R,R)-N,N'-di(1-oxo-octyl)-3,3'-dithiobis-(2-aminopropionic acid)dimethylester]",58*** %,52*** %
"CCCCCCCC(=O)N[C@@H](CSSC[C@H](NC(=O)CCCCCCC)C(=O)OCC)C(=O)OCC [Example 11, (R,R)-N,N'-di(1-oxo-octyl)-3,3'-dithiobis(2-aminopropionic acid)diethylester]",49*** %,7%
"COC(=O)[C@H](CSSC[C@H](NC(=O)C(C)C)C(=O)OC)NC(=O)C(C)C [Example 14, (R,R)-N,N'-di(2-methylpropionyl)-3,3'-dithiobis(2-aminopropionic acid)dimethylester]",110*** %,92** %
"CC(C)C(=O)N[C@@H](CSSC[C@H](NC(=O)C(C)C)C(=O)O)C(=O)O [Example 16, (R,R)-N,N'-di(2-methylpropionyl)-3,3'-dithiobis(2-aminopropionic acid)]",17%,18%
"CC(C)C(=O)N[C@@H](CSSC[C@H](N)C(=O)O)C(=O)O [Example 19, (R,R)-N-(2-methylpropionyl)-3,3'-dithiobis-(2-aminopropionic acid)]",37** %,31*** %
"CC(=O)N[C@@H](CSSC[C@H](NC(=O)C(C)(C)C)C(=O)O)C(=O)O [Example 20, (R,R)-N-Acetyl-N'-(2,2-dimethylpropionyl)-3,3'-dithiobis(2-aminopropionic acid)]",24* %,26* %
